Numbering of substitutions follows the chain as printed. These are yes or no findings as the source states them, for the method shown. Some results given as binding are weak or reduced against the parent protein; the word gives no strength. Sequences can lack the tags named with a protein.

Amino acid sequences for entries named in this document (tags omitted).
UniProt P06104: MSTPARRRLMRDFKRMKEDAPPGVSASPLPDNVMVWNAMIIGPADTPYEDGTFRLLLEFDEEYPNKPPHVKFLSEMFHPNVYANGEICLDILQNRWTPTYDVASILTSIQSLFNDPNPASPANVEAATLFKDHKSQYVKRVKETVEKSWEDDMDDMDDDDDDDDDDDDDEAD
UniProt P15873: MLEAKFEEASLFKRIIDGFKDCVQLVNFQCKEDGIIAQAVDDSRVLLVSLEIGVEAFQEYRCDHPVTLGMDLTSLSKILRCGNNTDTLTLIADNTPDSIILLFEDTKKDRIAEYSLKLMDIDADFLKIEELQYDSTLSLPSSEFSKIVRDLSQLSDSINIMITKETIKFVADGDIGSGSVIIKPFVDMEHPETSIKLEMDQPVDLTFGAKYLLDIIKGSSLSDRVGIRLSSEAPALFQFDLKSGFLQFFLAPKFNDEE

Four molecules from publication PMC8759821 can be followed below.

The target of assay [1] is T1, CC190,193GG Rad18 mutant protein (Zn*) (Saccharomyces cerevisiae) (UniProt P10862).
T1 sequence: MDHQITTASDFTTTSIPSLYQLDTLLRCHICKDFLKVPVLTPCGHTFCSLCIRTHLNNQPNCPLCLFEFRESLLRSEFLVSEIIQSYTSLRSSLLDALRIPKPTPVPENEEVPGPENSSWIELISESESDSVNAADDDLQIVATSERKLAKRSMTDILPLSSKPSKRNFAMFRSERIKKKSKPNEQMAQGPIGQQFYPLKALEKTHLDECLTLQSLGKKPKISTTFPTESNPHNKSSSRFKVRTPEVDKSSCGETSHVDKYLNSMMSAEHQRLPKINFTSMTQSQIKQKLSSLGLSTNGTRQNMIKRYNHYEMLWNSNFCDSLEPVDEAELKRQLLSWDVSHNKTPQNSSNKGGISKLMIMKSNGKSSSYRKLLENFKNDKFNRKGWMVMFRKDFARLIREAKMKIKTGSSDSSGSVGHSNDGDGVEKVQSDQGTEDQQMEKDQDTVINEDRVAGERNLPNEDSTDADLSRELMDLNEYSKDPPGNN
Put plainly: two-hybrid; Gal4-BD (pGBT9+1) and Gal4-AD (pGAD424+1) fusions co-transformed into wt PJ69-4A; growth on SC-leu/trp/his (HIS3 reporter), 3-amino-1,2,4-triazole where indicated; 30 °C, 3-6 days.

The target in assay [2] is T2, Rad18 (wild type, Saccharomyces cerevisiae) (Saccharomyces cerevisiae) (UniProt P10862).
T2 sequence: T1 sequence with G190C, G193C
The description is as above.

Assay [3] concerns the target T1, CC190,193GG Rad18 mutant protein (Zn*) (Saccharomyces cerevisiae). Kind of assay: two-hybrid; as a1 but in the rad18Δ pol30-K164R variant of PJ69-4A (no endogenous Rad18, genomic PCNA K164R); growth on SC-leu/trp/his, 3-AT where indicated; 30 °C, 3-6 days.
Assay [4] has as its target T2, Rad18 (wild type, Saccharomyces cerevisiae) (Saccharomyces cerevisiae). The description is as above.
Assay [5] shares this target. Kind of assay: two-hybrid; Gal4-BD (pGBT9+1) and Gal4-AD (pGAD424+1) fusions co-transformed into wt PJ69-4A; growth on SC-leu/trp/his (HIS3 reporter), 3-amino-1,2,4-triazole where indicated; 30 °C, 3-6 days. The source holds these as a separate data set.
Assay [6] has as its target Rad6 (Saccharomyces cerevisiae) (UniProt P06104). Described as above.
The target is the same in assay [7]. Kind of assay: two-hybrid; as a1 but in the rad18Δ pol30-K164R variant of PJ69-4A (no endogenous Rad18, genomic PCNA K164R); growth on SC-leu/trp/his, 3-AT where indicated; 30 °C, 3-6 days.
Assay [8] has as its target T1, CC190,193GG Rad18 mutant protein (Zn*) (Saccharomyces cerevisiae). Put plainly: two-hybrid; Gal4-BD (pGBT9+1) and Gal4-AD (pGAD424+1) fusions co-transformed into wt PJ69-4A; growth on SC-leu/trp/his (HIS3 reporter), 3-amino-1,2,4-triazole where indicated; 30 °C, 3-6 days. This is another data set of the same source.
The target of assay [9] is T3, Znf- peptide (Rad18 amino acids 170-230, CC190,193GG mutant Zn-finger) (Saccharomyces cerevisiae) (UniProt P10862).
T3 sequence: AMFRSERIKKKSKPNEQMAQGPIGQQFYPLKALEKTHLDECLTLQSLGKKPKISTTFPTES
Put plainly: two-hybrid; Gal4-BD fusions of the Rad18 170-230 peptides (Znf+, Znf-) with Rad5; host strain of this panel (Figure 6C) not stated; growth on SC-leu/trp/his.

Assay [10] deals with T4, Znf+ peptide (Rad18 amino acids 170-230, wt Zn-finger) (Saccharomyces cerevisiae) (UniProt P10862).
T4 sequence: T3 sequence with G21C, G24C
The assay is described as above.

As for “PCNA (Pol30) (from UniProt P15873 1-258)”, the binding entry in assay [1], in [2], in assay [3] and in [4] was “binds” throughout.

B1: Rad18 (wild type, Saccharomyces cerevisiae) (protein, UniProt P10862 1-487)
chain: T1 sequence with G190C, G193C
As for B1, the binding entry in assay [5], in assay [6], in assay [4] and in assay [7] was “binds” throughout.

B2: CC190,193GG Rad18 mutant protein (Zn*) (protein, UniProt P10862 1-487)
chain: T1 sequence
As for B2, the binding entry in assay [8], in assay [6], in assay [3] and in assay [7] was “binds” each time.

B3: Rad5 (protein, UniProt P32849 1-1169)
chain: MSHIEQEERKRFFNDDLDTSETSLNFKSENKESFLFANSHNDDDDDVVVSVSDTTEGEGDRSIVPVRREIEEEGQNQFITELLRIIPEMPKDLVMELNEKFGSQEEGLSLALSHYFDHNSGTSISKIPSSPNQLNTLSDTSNSTLSPSSFHPKRRRIYGFRNQTRLEDKVTWKRFIGALQVTGMATRPTVRPLKYGSQMKLKRSSEEISATKVYDSRGRKKASMASLVRIFDIQYDREIGRVSEDIAQILYPLLSSHEISFEVTLIFCDNKRLSIGDSFILQLDCFLTSLIFEERNDGESLMKRRRTEGGNKREKDNGNFGRTLTETDEELESRSKRLALLKLFDKLRLKPILDEQKALEKHKIELNSDPEIIDLDNDEICSNQVTEVHNNLRDTQHEEETMNLNQLKTFYKAAQSSESLKSLPETEPSRDVFKLELRNYQKQGLTWMLRREQEFAKAASDGEASETGANMINPLWKQFKWPNDMSWAAQNLQQDHVNVEDGIFFYANLHSGEFSLAKPILKTMIKGGILSDEMGLGKTVAAYSLVLSCPHDSDVVDKKLFDIENTAVSDNLPSTWQDNKKPYASKTTLIVVPMSLLTQWSNEFTKANNSPDMYHEVYYGGNVSSLKTLLTKTKTPPTVVLTTYGIVQNEWTKHSKGRMTDEDVNISSGLFSVNFYRIIIDEGHNIRNRTTVTSKAVMALQGKCKWVLTGTPIINRLDDLYSLVKFLELDPWRQINYWKTFVSTPFESKNYKQAFDVVNAILEPVLLRRTKQMKDKDGKPLVELPPKEVVIKRLPFSKSQDLLYKFLLDKAEVSVKSGIARGDLLKKYSTILVHILRLRQVCCHPGLIGSQDENDEDLSKNNKLVTEQTVELDSLMRVVSERFDNSFSKEELDAMIQRLKVKYPDNKSFQSLECSICTTEPMDLDKALFTECGHSFCEKCLFEYIEFQNSKNLGLKCPNCRNQIDACRLLALVQTNSNSKNLEFKPYSPASKSSKITALLKELQLLQDSSAGEQVVIFSQFSTYLDILEKELTHTFSKDVAKIYKFDGRLSLKERTSVLADFAVKDYSRQKILLLSLKAGGVGLNLTCASHAYMMDPWWSPSMEDQAIDRLHRIGQTNSVKVMRFIIQDSIEEKMLRIQEKKRTIGEAMDTDEDERRKRRIEEIQMLFE
On to B3, for which the binding entry was “no binding” in assay [8]; “binds” in assay [5]; “no binding” in [3]; “binds” in assay [4]; “no binding” in assay [9]; “binds” in assay [10].
